First the molecules themselves.
T1: full-length NlpD (murein hydrolase activator), bacterial two-hybrid fusion (UniProt P0ADA3)
T1 sequence: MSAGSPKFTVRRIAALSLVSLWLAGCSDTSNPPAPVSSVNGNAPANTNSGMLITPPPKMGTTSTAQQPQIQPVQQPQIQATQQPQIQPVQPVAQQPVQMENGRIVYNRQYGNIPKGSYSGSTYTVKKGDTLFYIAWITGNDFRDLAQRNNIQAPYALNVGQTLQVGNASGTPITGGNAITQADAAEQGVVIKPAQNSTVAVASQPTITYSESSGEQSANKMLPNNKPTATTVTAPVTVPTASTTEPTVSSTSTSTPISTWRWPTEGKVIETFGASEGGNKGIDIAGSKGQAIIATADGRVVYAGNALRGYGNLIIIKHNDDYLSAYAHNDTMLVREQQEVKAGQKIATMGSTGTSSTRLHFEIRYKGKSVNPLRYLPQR

T2: EnvC (35 to 419), bacterial two-hybrid fusion (E. coli) (UniProt P37690)
T2 sequence: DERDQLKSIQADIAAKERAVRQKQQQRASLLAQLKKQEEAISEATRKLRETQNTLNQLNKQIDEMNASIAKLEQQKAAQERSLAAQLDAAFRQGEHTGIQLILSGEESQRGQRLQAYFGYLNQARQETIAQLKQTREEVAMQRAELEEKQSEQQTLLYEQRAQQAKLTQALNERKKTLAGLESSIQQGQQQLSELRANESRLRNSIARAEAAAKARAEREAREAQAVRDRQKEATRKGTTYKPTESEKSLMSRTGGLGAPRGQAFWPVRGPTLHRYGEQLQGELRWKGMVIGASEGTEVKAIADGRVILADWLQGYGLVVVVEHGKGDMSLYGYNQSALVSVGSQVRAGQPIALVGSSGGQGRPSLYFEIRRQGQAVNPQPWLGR

T3: FtsX, wild type, bacterial two-hybrid fusion (Fig. 3B and 4E) (E. coli) (UniProt P0AC30)
T3 sequence: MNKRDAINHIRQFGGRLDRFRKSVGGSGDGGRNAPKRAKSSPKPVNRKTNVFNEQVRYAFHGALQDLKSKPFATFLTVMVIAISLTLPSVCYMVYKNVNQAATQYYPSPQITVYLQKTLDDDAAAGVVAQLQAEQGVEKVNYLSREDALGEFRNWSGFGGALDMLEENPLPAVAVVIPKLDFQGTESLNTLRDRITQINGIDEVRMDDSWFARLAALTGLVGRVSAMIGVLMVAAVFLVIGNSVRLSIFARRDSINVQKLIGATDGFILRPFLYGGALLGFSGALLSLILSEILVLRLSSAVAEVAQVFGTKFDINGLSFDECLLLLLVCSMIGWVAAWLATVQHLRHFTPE

T4: FtsE, wild type, bacterial two-hybrid fusion (E. coli) (UniProt P0A9R7)
T4 sequence: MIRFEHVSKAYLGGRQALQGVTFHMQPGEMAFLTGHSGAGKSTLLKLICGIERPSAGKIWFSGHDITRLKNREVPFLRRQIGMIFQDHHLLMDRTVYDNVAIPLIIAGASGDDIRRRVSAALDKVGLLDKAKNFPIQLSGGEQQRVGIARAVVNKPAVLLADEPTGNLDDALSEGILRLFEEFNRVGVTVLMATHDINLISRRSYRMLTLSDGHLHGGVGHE

T5: FtsA, bacterial two-hybrid fusion (UniProt P0ABH0)
T5 sequence: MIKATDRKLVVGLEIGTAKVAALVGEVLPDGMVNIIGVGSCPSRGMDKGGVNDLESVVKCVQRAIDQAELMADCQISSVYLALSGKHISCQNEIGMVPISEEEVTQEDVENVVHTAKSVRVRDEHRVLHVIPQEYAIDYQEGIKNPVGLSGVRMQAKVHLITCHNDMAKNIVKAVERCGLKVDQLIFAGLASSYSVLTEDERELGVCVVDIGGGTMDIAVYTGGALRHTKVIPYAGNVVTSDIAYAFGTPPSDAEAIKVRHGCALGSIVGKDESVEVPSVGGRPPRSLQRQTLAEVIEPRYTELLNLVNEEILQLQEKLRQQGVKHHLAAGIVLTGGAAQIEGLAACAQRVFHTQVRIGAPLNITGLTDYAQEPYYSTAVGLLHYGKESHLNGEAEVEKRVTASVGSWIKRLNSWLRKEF

B1: AmiC, bacterial two-hybrid fusion (enzyme, UniProt P63883 1-417)
chain: MSGSNTAISRRRLLQGAGAMWLLSVSQVSLAAVSQVVAVRVWPASSYTRVTVESNRQLKYKQFALSNPERVVVDIEDVNLNSVLKGMAAQIRADDPFIKSARVGQFDPQTVRMVFELKQNVKPQLFALAPVAGFKERLVMDLYPANAQDMQDPLLALLEDYNKGDLEKQVPPAQSGPQPGKAGRDRPIVIMLDPGHGGEDSGAVGKYKTREKDVVLQIARRLRSLIEKEGNMKVYMTRNEDIFIPLQVRVAKAQKQRADLFVSIHADAFTSRQPSGSSVFALSTKGATSTAAKYLAQTQNASDLIGGVSKSGDRYVDHTMFDMVQSLTIADSLKFGKAVLNKLGKINKLHKNQVEQAGFAVLKAPDIPSILVETAFISNVEEERKLKTATFQQEVAESILAGIKAYFADGATLARRG
B2: T18-FtsX periplasmic domain (110 to 209) Δ145-171 (X-lobe replaced by a pair of glycines) (domain or fragment, UniProt P0AC30)
chain: QITVYLQKTLDDDAAAGVVAQLQAEQGVEKVNYLSGGAVAVVIPKLDFQGTESLNTLRDRITQINGIDEVRMDDS
B3: T18-FtsX periplasmic domain (110 to 209) Y114E (domain or fragment, UniProt P0AC30 110-209)
chain: QITVELQKTLDDDAAAGVVAQLQAEQGVEKVNYLSREDALGEFRNWSGFGGALDMLEENPLPAVAVVIPKLDFQGTESLNTLRDRITQINGIDEVRMDDS
B4: T18-FtsX periplasmic domain (110 to 209) A161D (domain or fragment, UniProt P0AC30 110-209)
chain: QITVYLQKTLDDDAAAGVVAQLQAEQGVEKVNYLSREDALGEFRNWSGFGGDLDMLEENPLPAVAVVIPKLDFQGTESLNTLRDRITQINGIDEVRMDDS
B5: T18-FtsX periplasmic domain (110 to 209) Y114A (domain or fragment, UniProt P0AC30 110-209)
chain: QITVALQKTLDDDAAAGVVAQLQAEQGVEKVNYLSREDALGEFRNWSGFGGALDMLEENPLPAVAVVIPKLDFQGTESLNTLRDRITQINGIDEVRMDDS
B6: T18-FtsX periplasmic domain (110 to 209) W155A (domain or fragment, UniProt P0AC30 110-209)
chain: QITVYLQKTLDDDAAAGVVAQLQAEQGVEKVNYLSREDALGEFRNASGFGGALDMLEENPLPAVAVVIPKLDFQGTESLNTLRDRITQINGIDEVRMDDS
B7: T18-FtsX periplasmic domain (110 to 209) K117A (domain or fragment, UniProt P0AC30 110-209)
chain: QITVYLQATLDDDAAAGVVAQLQAEQGVEKVNYLSREDALGEFRNWSGFGGALDMLEENPLPAVAVVIPKLDFQGTESLNTLRDRITQINGIDEVRMDDS
B8: T18-FtsX periplasmic domain (110 to 209) D202A (domain or fragment, UniProt P0AC30 110-209)
chain: QITVYLQKTLDDDAAAGVVAQLQAEQGVEKVNYLSREDALGEFRNWSGFGGALDMLEENPLPAVAVVIPKLDFQGTESLNTLRDRITQINGIAEVRMDDS
B9: T18-FtsX periplasmic domain (110 to 209) R205A (domain or fragment, UniProt P0AC30 110-209)
chain: QITVYLQKTLDDDAAAGVVAQLQAEQGVEKVNYLSREDALGEFRNWSGFGGALDMLEENPLPAVAVVIPKLDFQGTESLNTLRDRITQINGIDEVAMDDS
B10: T18-FtsX periplasmic domain (110 to 209) L165A (domain or fragment, UniProt P0AC30 110-209)
chain: QITVYLQKTLDDDAAAGVVAQLQAEQGVEKVNYLSREDALGEFRNWSGFGGALDMAEENPLPAVAVVIPKLDFQGTESLNTLRDRITQINGIDEVRMDDS
B11: T18-FtsX periplasmic domain (110 to 209) F158A (domain or fragment, UniProt P0AC30 110-209)
chain: QITVYLQKTLDDDAAAGVVAQLQAEQGVEKVNYLSREDALGEFRNWSGAGGALDMLEENPLPAVAVVIPKLDFQGTESLNTLRDRITQINGIDEVRMDDS
B12: T18-FtsX periplasmic domain (110 to 209) F158E (domain or fragment, UniProt P0AC30 110-209)
chain: QITVYLQKTLDDDAAAGVVAQLQAEQGVEKVNYLSREDALGEFRNWSGEGGALDMLEENPLPAVAVVIPKLDFQGTESLNTLRDRITQINGIDEVRMDDS
B13: T18-FtsX periplasmic domain (residues 110 to 209), wild type (domain or fragment, UniProt P0AC30 110-209)
chain: QITVYLQKTLDDDAAAGVVAQLQAEQGVEKVNYLSREDALGEFRNWSGFGGALDMLEENPLPAVAVVIPKLDFQGTESLNTLRDRITQINGIDEVRMDDS
B14: T18-FtsX periplasmic domain (110 to 209) F152A (domain or fragment, UniProt P0AC30 110-209)
chain: QITVYLQKTLDDDAAAGVVAQLQAEQGVEKVNYLSREDALGEARNWSGFGGALDMLEENPLPAVAVVIPKLDFQGTESLNTLRDRITQINGIDEVRMDDS
B15: T18-FtsX periplasmic domain (110 to 209) M164A (domain or fragment, UniProt P0AC30 110-209)
chain: QITVYLQKTLDDDAAAGVVAQLQAEQGVEKVNYLSREDALGEFRNWSGFGGALDALEENPLPAVAVVIPKLDFQGTESLNTLRDRITQINGIDEVRMDDS
B16: FtsE K41A, bacterial two-hybrid fusion (protein, UniProt P0A9R7 1-222)
chain: MIRFEHVSKAYLGGRQALQGVTFHMQPGEMAFLTGHSGAGASTLLKLICGIERPSAGKIWFSGHDITRLKNREVPFLRRQIGMIFQDHHLLMDRTVYDNVAIPLIIAGASGDDIRRRVSAALDKVGLLDKAKNFPIQLSGGEQQRVGIARAVVNKPAVLLADEPTGNLDDALSEGILRLFEEFNRVGVTVLMATHDINLISRRSYRMLTLSDGHLHGGVGHE
B17: FtsE E163Q, bacterial two-hybrid fusion (protein, UniProt P0A9R7 1-222)
chain: MIRFEHVSKAYLGGRQALQGVTFHMQPGEMAFLTGHSGAGKSTLLKLICGIERPSAGKIWFSGHDITRLKNREVPFLRRQIGMIFQDHHLLMDRTVYDNVAIPLIIAGASGDDIRRRVSAALDKVGLLDKAKNFPIQLSGGEQQRVGIARAVVNKPAVLLADQPTGNLDDALSEGILRLFEEFNRVGVTVLMATHDINLISRRSYRMLTLSDGHLHGGVGHE
B18: FtsX F152E variant, bacterial two-hybrid fusion (Fig. 3B) (protein, UniProt P0AC30 1-352)
chain: MNKRDAINHIRQFGGRLDRFRKSVGGSGDGGRNAPKRAKSSPKPVNRKTNVFNEQVRYAFHGALQDLKSKPFATFLTVMVIAISLTLPSVCYMVYKNVNQAATQYYPSPQITVYLQKTLDDDAAAGVVAQLQAEQGVEKVNYLSREDALGEERNWSGFGGALDMLEENPLPAVAVVIPKLDFQGTESLNTLRDRITQINGIDEVRMDDSWFARLAALTGLVGRVSAMIGVLMVAAVFLVIGNSVRLSIFARRDSINVQKLIGATDGFILRPFLYGGALLGFSGALLSLILSEILVLRLSSAVAEVAQVFGTKFDINGLSFDECLLLLLVCSMIGWVAAWLATVQHLRHFTPE

No constants are given. Whether binding was seen depends on the method and setting. Some binding calls cover weakened binding; strength is not graded here. Sequences can lack the tags named with a protein.

The first experiment addresses T1, full-length NlpD (murein hydrolase activator), bacterial two-hybrid fusion. Put plainly: two-hybrid; bacterial adenylate cyclase two hybrid (BACTH) system; E. coli BTH101 cells grown on IPTG/X-gal LB plates at room temperature; coloration followed over a time course.
For B1, the binding result is on record as “no binding”.

For the next experiment, the target named is T2, EnvC (35 to 419), bacterial two-hybrid fusion (E. coli). Described as above.
Take B2: the binding result is given as “no binding”. Still for that read-out and setting: the same measure for B3: “binds”. On the same count and under the same terms, the same measure for B4: “binds”; for B5: “binds”. Turning to B6, the binding result is “binds”. Take B7: the binding result was “binds”. On to B8, for which the binding entry was “binds”. As to B9, the binding result is on record as “binds”.

As to B10, the binding entry is listed as “binds”.

Regarding B11, the binding entry is on record as “binds”. On the same count and under the same terms, with B12 the entry was “binds”; with B13, “binds”; with B14, “binds”. For B15, the binding result is on record as “binds”.

Take B1: the binding result is “no binding”.

A further experiment concerns the target T3, FtsX, wild type, bacterial two-hybrid fusion (Fig. 3B and 4E) (E. coli). The experiment is described as above.
In the case of B16, the binding entry is recorded as “binds”.

On to B17, for which the binding entry is “binds”. Still for that read-out and setting: with B18 the entry was “binds”.

A further experiment addresses T4, FtsE, wild type, bacterial two-hybrid fusion (E. coli). The description is as above.
Take B18: the binding entry is listed as “binds”.

Another experiment concerns the target T5, FtsA, bacterial two-hybrid fusion. The description is as above.
In the case of B18, the binding result is given as “binds”.

Values taken from PMC7668044, “Insights into bacterial cell division from a structure of EnvC bound to the FtsX periplasmic domain” (Proceedings of the National Academy of Sciences of the …, 2020).
